# Measured values published in PMC11995724, “Antibiotic target discovery by integrated phenotypic and activity-based profiling of electrophilic fragments” (Cell chemical biology, 2025).
# Out of some 3,200 compounds screened, about 75 (2%) showed an effect of 50% or more. The list shows a part of the results.
# Test system: T1, S. aureus MSSA476
# T1 construct: MSSA476
# Design: species or system S. aureus MSSA476 (TSB) or V. cholerae SAD30 (LB); 384-well bacterial growth screen at 25 uM, OD600 relative to DMSO control
# Conditions: relative growth, OD600, TSB; 25 µM; inhibitor
row,SMILES,% of control remaining [%]
1,"CCc1ccc(CC)c(C(=O)CCl)c1 [10-H14, 2-chloro-1-(2,5-diethylphenyl)ethan-1-one]",125.625
2,"CC(C)N(Cc1ccccc1)C(=O)CCl [5-J20, N-benzyl-2-chloro-N-(propan-2-yl)acetamide]",88.5246
3,"Cc1ccc(C)c(NC(=O)C(C#N)=Cc2ccc3c(c2)OCCO3)c1 [8-L11, 2-cyano-3-(2,3-dihydro-1,4-benzodioxin-6-yl)-N-(2,5-dimethylphenyl)prop-2-enamide]",108.216
4,"C=CC(=O)N1CCCC(c2nn(C)cc2C(N)=O)C1 (stereo not drawn) [1-D07, 1-methyl-3-[1-(prop-2-enoyl)piperidin-3-yl]-1H-pyrazole-4-carboxamide]",92.1319
5,"CC1CCCCC1NC(=O)C(C#N)=Cc1cccc(O)c1 (stereo not drawn) [8-E07, 2-cyano-3-(3-hydroxyphenyl)-N-(2-methylcyclohexyl)prop-2-enamide]",84.3154
6,"C=CC(=O)NC[C@@H]1CCCN1c1ccccc1 [3-E03, N-{[(2S)-1-phenylpyrrolidin-2-yl]methyl}prop-2-enamide]",120.505
7,"Cl.O=C(CCl)Nc1ccccn1 [5-B14, 2-chloro-N-(pyridin-2-yl)acetamide hydrochloride]",91.0747
8,"O=C(CCl)Nc1sc2c(c1C(=O)c1ccccc1)CCCC2 [4-A06, N-(3-benzoyl-4,5,6,7-tetrahydro-1-benzothiophen-2-yl)-2-chloroacetamide]",152.835
9,"COc1ccccc1[C@H]1C[C@H](NC(=O)CCl)C1 [7-L18, 2-chloro-N-[(1r,3r)-3-(2-methoxyphenyl)cyclobutyl]acetamide]",63.4223
10,"C=CC(=O)Nc1cccc(C(F)(F)CF)c1 [2-O12, N-[3-(1,1,2-trifluoroethyl)phenyl]prop-2-enamide]",84.9434
11,"CC(Cl)C(=O)NC1CCCN(c2ncccn2)C1 (stereo not drawn) [7-C21, 2-chloro-N-[1-(pyrimidin-2-yl)piperidin-3-yl]propanamide]",90.4239
12,"N#CC(=Cc1ccccc1OC(F)F)C(=O)Nc1ccccc1Cl [9-M21, N-(2-chlorophenyl)-2-cyano-3-[2-(difluoromethoxy)phenyl]prop-2-enamide]",76.7041
13,"COCC(C)NC(=O)C(C#N)=Cc1cc2cc(F)ccc2o1 (stereo not drawn) [9-F04, 2-cyano-3-(5-fluoro-1-benzofuran-2-yl)-N-(1-methoxypropan-2-yl)prop-2-enamide]",100.375
14,"CS(=O)(=O)N1CCCc2cc(C(=O)CCl)ccc21 [10-H19, 2-chloro-1-(1-methanesulfonyl-1,2,3,4-tetrahydroquinolin-6-yl)ethan-1-one]",1.5625
15,"CN(Cc1ccc(N(C)C)cc1)C(=O)CCl.Cl [5-F06, 2-chloro-N-{[4-(dimethylamino)phenyl]methyl}-N-methylacetamide hydrochloride]",105.647
16,"C=CC(=O)N(C)CC(=O)N1CCn2cc(C(F)(F)F)nc2C1 [3-A04, N-methyl-N-{2-oxo-2-[2-(trifluoromethyl)-5H,6H,7H,8H-imidazo[1,2-a]pyrazin-7-yl]ethyl}prop-2-enamide]",110.753
17,"CN(C)S(=O)(=O)c1cc(NC(=O)CCl)ccc1Cl [5-E13, 2-chloro-N-[4-chloro-3-(dimethylsulfamoyl)phenyl]acetamide]",108.197
18,"NC(=O)c1coc(C(=O)CCl)c1 [10-C05, 5-(2-chloroacetyl)furan-3-carboxamide]",105.938
19,"CC(Cl)C(=O)N1CCN(CC(F)(F)F)CC1C(C)C (stereo not drawn) [7-C22, 2-chloro-1-[2-(propan-2-yl)-4-(2,2,2-trifluoroethyl)piperazin-1-yl]propan-1-one]",69.3878
20,"CC(Cl)C(=O)NC1CCN(CC(=O)Nc2ccccc2)CC1 (stereo not drawn) [7-E13, 2-chloro-N-{1-[(phenylcarbamoyl)methyl]piperidin-4-yl}propanamide]",94.1915
21,"C=CC(=O)NCCc1c(C)oc2ccccc12 [1-N07, N-[2-(2-methyl-1-benzofuran-3-yl)ethyl]prop-2-enamide]",109.011
22,"CC(Cl)C(=O)NC(C)c1nc(Cc2ccccc2)no1 (stereo not drawn) [7-B19, N-[1-(3-benzyl-1,2,4-oxadiazol-5-yl)ethyl]-2-chloropropanamide]",70.9576
23,"C=CC(=O)Nc1nn(C2CCCC2)c(C)c1Cl [1-O06, N-(4-chloro-1-cyclopentyl-5-methyl-1H-pyrazol-3-yl)prop-2-enamide]",120.264

row,SMILES,% of control remaining [%]
1,"O=C(CCl)NCC1(c2ccccc2)CCOCC1 [6-I07, 2-chloro-N-[(4-phenyloxan-4-yl)methyl]acetamide]",92.1951
2,"C=CC(=O)Nc1nc(C)c(CC(C)C)s1 [1-J12, N-[4-methyl-5-(2-methylpropyl)-1,3-thiazol-2-yl]prop-2-enamide]",123.78
3,"C=CC(=O)N(Cc1ccc(OC)cc1)[C@@H]1CCCC[C@H]1O [2-M05, N-[(1R,2R)-2-hydroxycyclohexyl]-N-[(4-methoxyphenyl)methyl]prop-2-enamide]",114.186
4,"CC(Cl)C(=O)NCc1noc2ccccc12 (stereo not drawn) [7-I14, N-[(1,2-benzoxazol-3-yl)methyl]-2-chloropropanamide]",108.32
5,"CC(C)c1ccc(C(C)NC(=O)CCl)cc1 (stereo not drawn) [4-I05, 2-chloro-N-{1-[4-(propan-2-yl)phenyl]ethyl}acetamide]",78.8947
6,"CC(Cl)C(=O)N[C@H]1CN(Cc2ccccc2)C[C@@H]1c1ccccc1 (mixture of isomers) [7-N09, rac-N-[(3R,4S)-1-benzyl-4-phenylpyrrolidin-3-yl]-2-chloropropanamide]",77.237
7,"Cc1nc2ccccc2n(CCCNC(=O)C(C)Cl)c1=O (stereo not drawn) [7-O21, 2-chloro-N-[3-(3-methyl-2-oxo-1,2-dihydroquinoxalin-1-yl)propyl]propanamide]",91.3658
8,"Cc1nn(Cc2ccccc2)c(C)c1CNC(=O)CCl [4-O11, N-[(1-benzyl-3,5-dimethyl-1H-pyrazol-4-yl)methyl]-2-chloroacetamide]",107.48
9,"CC(Cl)C(=O)NCCCN1CCc2ccccc2C1 (stereo not drawn) [7-M11, 2-chloro-N-[3-(1,2,3,4-tetrahydroisoquinolin-2-yl)propyl]propanamide]",85.7143
10,"N#CC(=Cc1ccc(O)cc1)C(=O)Nc1cc(Cl)ccc1Cl [9-F03, 2-cyano-N-(2,5-dichlorophenyl)-3-(4-hydroxyphenyl)prop-2-enamide]",83.5955
11,"CC(=O)c1cccc(NC(=O)C(C)Cl)c1 (stereo not drawn) [6-K22, N-(3-acetylphenyl)-2-chloropropanamide]",98.6829
12,"CC(NC(=O)CCl)c1nnc(-c2ccccc2F)s1 (stereo not drawn) [7-L21, 2-chloro-N-{1-[5-(2-fluorophenyl)-1,3,4-thiadiazol-2-yl]ethyl}acetamide]",97.0173
13,"Nc1c(C(=O)CCl)c(=O)[nH]c(=O)n1Cc1ccccc1 [10-J18, 6-amino-1-benzyl-5-(2-chloroacetyl)-1,2,3,4-tetrahydropyrimidine-2,4-dione]",130.938
14,"CCOC(=O)c1c(C)[nH]c(C)c1C(=O)CCl [10-C10, ethyl 4-(2-chloroacetyl)-2,5-dimethyl-1H-pyrrole-3-carboxylate]",108.125
15,"C=CC(=O)N1CCc2c(nnn2CCOC)C1 [1-N05, 1-[1-(2-methoxyethyl)-1H,4H,5H,6H,7H-[1,2,3]triazolo[4,5-c]pyridin-5-yl]prop-2-en-1-one]",84.7473
16,"Cc1n[nH]c(C)c1C=C(C#N)C(=O)Nc1ccc(SC(F)F)cc1 [8-E08, 2-cyano-N-{4-[(difluoromethyl)sulfanyl]phenyl}-3-(3,5-dimethyl-1H-pyrazol-4-yl)prop-2-enamide]",80.332
17,"CC1CC(c2ccccc2F)N(C(=O)C(C)Cl)C1 (stereo not drawn) [6-H18, 2-chloro-1-[2-(2-fluorophenyl)-4-methylpyrrolidin-1-yl]propan-1-one]",89.8049
18,"C=CC(=O)NCc1noc2c1CCCC2 [3-B20, N-[(4,5,6,7-tetrahydro-1,2-benzoxazol-3-yl)methyl]prop-2-enamide]",115.629
19,"C=CC(=O)Nc1ccc(F)c(C(=O)CC)c1 [1-I22, N-(4-fluoro-3-propanoylphenyl)prop-2-enamide]",119.209
20,"C=CC(=O)N1CCC(C(=O)N2CCn3ccnc32)CC1 [2-I04, 1-(4-{1H,2H,3H-[1,3]diazolo[1,2-a]imidazole-1-carbonyl}piperidin-1-yl)prop-2-en-1-one]",123.934
21,"Cc1csc(-n2c(C)cc(C(=O)CCl)c2C)n1 [10-G05, 2-chloro-1-[2,5-dimethyl-1-(4-methyl-1,3-thiazol-2-yl)-1H-pyrrol-3-yl]ethan-1-one]",121.563
22,"CC(NC(=O)CCl)C(c1ccccc1Cl)n1cccn1 (stereo not drawn) [7-D20, 2-chloro-N-[1-(2-chlorophenyl)-1-(1H-pyrazol-1-yl)propan-2-yl]acetamide]",83.5165
